Source: PubChem BioAssay AID995 (National Center for Advancing Translational Sciences (NCATS), 2007)
“And” between values parts separate entries of the source, which are not always exact repeats. Equal entries are not always repeated. The campaign covered roughly 72,000 compounds. About 710 (0.99%) were called active. This list was built around the results that the source calls inconclusive (neither active nor inactive); the mix of calls is not that of the screen. The call rests on the fitted dose curve; in most records, active means well fitted inhibition curve with a large enough effect; inconclusive means small, poorly fitted or top-dose-only effect; inactive means no such curve, though single readings can be large or run the other way. Potencies beside an inconclusive call are fits to weak or partial responses and may not hold up.

Assay: qHTS Assay for Inhibitors of the ERK Signaling Pathway using a Homogeneous Screening Assay; further: nearly all actives have a fitted effect of over 55% in size
Settings: HEK293-V1b, vasopressin-stimulated pERK AlphaScreen; activity, negative = inhibition: at 57.5 µM (top of the series) unless noted
Description: qHTS Assay for Inhibitors of the ERK Signaling Pathway using a Homogeneous Screening Assay; further: nearly all actives have a fitted effect of over 55% in size
NIH Chemical Genomics Center [NCGC]
NIH Molecular Libraries Screening Centers Network [MLSCN]
Assay Submitter (PI): Dr. Wei Zheng, NCGC/NIH
The Ras/extracellular-signal-regulated kinase (ERK) mitogen activated protein (MAP) kinase signaling pathway (ERK1/2 cascade) plays is a key role in transmitting signals from the cell surface to the nucleus (Nishida and Gotoh 1993; Chang and Karin, 2001). The cascade is initiated by the small G-protein Ras, which recruits Raf […], where activation occurs. Alternatively, this pathway can be activated by elevating intracellular cAMP.
Activation of the ERK pathway is essential in increased cell division and cell survival. Sustained and constitutive activation of the ERK pathway, however, has been linked to uncontrolled cell proliferation, increased cell survival, and tumor progression. Thus, the ERK has been as an attractive target for cancer chemotherapy in the past few years (Sebolt-Leopold and Herrera, 2004). Given its physiological and pathological importance, assessment of ERK phosphorylation has been broadly performed in both basic research and drug discovery. Most assays for the measurement of ERK phosphorylation use the antibody-based detection methods, such as western blot and ELISA. These assays require multiple reagent additions with cell wash steps and are not suitable for high throughout screening.
The current cell-based ERK phosphorylation assay was performed using AlphaScreen platform. AlphaScreen is a two bead-based proximity-dependent chemical energy transfer luminescent assay platform. The assay reagents (ERK SureFire(TM) kit) were supplied from TGR BioSciences (Australia). In the presence of specific antibodies, phosphorylated ERK will bring "donor" and "acceptor" beads to a proximity range (<200 nm), and subsequently lead a chemical luminescent reaction upon exciting donor beads with 680 nm laser. To exclude the assay-related false positives, we used a biotinylated rabbit IgG to perform counter-screen. The biotinylated antibody mimics the phosphorylated ERK1/2 for bringing streptavidin coated beads and protein-A coated beads to a proximity range for the AlphaScreen detection.
NCGC Assay Protocol Summary:
HEK293 cells stably expressing type-1 vasopressin receptor (V1b) were maintained in DMEM medium (Invitrogen, Carlsbad, CA) at 37C under a humidified atmosphere containing 5% CO2 and 95% air. The medium contained 10% FBS, 2 mM L-glutamine, non-essential amino acid, pyruvate and 50 U/ml penicillin and 50 ug/ml streptomycin (Invitrogen). The aliquots of frozen cells were stored at -135C and used for the compound screening. All compounds were screened as titrations from 0.6 nM to 46 uM final concentration. Vasopressin was used to stimulate the ERK phosphorylation pathway. The ERK phosphorylation in cells was determined using an AlphaScreen assay kit provided by PerkinElmer. Data were normalized to the controls for basal activity (DMSO only) and 100% activation (25 nM vasopressin). AC50 values were determined from concentration-response data modeled with the standard Hill equation.
(1) Seed 4 ul/well of resuspended frozen HEK293 cells containing 2000 cells in white 1536-well plates for overnight with 1% FBS at 37C under a humidified atmosphere containing 5% CO2 and 95% air.
(2) Add 23 nL compounds in DMSO solution. The final titration was 0.6 nM to 46 uM.
(3) Incubate at 37C for 30 min.
(4) Dispense 0.5uL vasopressin (25 nM in final)
(5) Incubate at 37C for 5 min.
(6) Dispense 0.5uL of 1:2 diluted 5x lysis buffer.
(7) Incubate at 37C for 10 min.
(8) Dispense 1.5uL of mixture of activation buffer and reaction buffer with AlphaScreen beads (streptavidin donor beads and protein-A acceptor beads, 10 ng/well for each).
(9) Incubate at room temperature for 5 hr.
(10) Detect the assay plate in an EnVision plate reader (PerkinElmer) using the AlphaScreen detection mode.
[…]
On the % scale 0 is the no-effect control and ±100 the full control effect; potency means the concentration at half of the fitted maximal effect; tags describe the fitted curve by direction and shape.

SMILES | Potency | activity, negative = inhibition
COc1cccc(NC(=O)C(C#N)Cc2ccncc2)c1 (configuration not stated) | inconclusive: 20 µM [inhibitor, partial curve] | –
Cc1cccc(N2CCN(C(=O)CS(=O)(=O)Cc3nc(-c4ccccc4F)oc3C)CC2C)c1 (configuration not stated) | inconclusive: 31.6 µM [inhibitor, single point] | –
CCN(CC)S(=O)(=O)c1ccc(C(=O)OCC(=O)N2CCN(C(=O)c3ccco3)CC2)cc1 | inconclusive: 25.1 µM [inhibitor, single point] | –
O=C(Nc1ccc(S(=O)(=O)Nc2nccs2)cc1)C1CCCCC1 | inconclusive: 15.8 µM [inhibitor, partial curve] | –
C=CCc1c(C)nc(SC)nc1Nc1ccc(C(C)=O)cc1 | inconclusive: 0.0631 µM [inhibitor, partial curve, poor fit] | –
CN1CCN(c2ncc3nc(-c4cc(F)cc(F)c4)c(=O)n(C)c3n2)CC1 | inactive | –
Cn1cccc1C(=O)NC(=O)CSc1nc2ccccc2s1 | inconclusive: 15.8 µM [inhibitor, single point] | –
N#C/C(=C(/O)CN1C(=O)c2ccccc2C1=O)c1nc2ccccc2[nH]1 | – | inconclusive: -36.9% [inhibitor]
Cc1ccc(S(=O)(=O)N2CCCC2C(=O)Nc2nc3c(s2)CCCC3)cc1 (configuration not stated) | inconclusive: 1.26 µM [inhibitor, partial curve, poor fit] | –
COc1ccc(Oc2ncc3nc(-c4ccc(Cl)cc4)c(=O)n(C[C@H]4CCCO4)c3n2)cc1 | inactive | –
COC(=O)c1ccccc1NC(=O)Cn1c(=O)oc2ccc(Cl)cc21 | inactive | –
COC(=O)C/C=C\[C@@H](C)[C@@H](/C=N\OC[C@@H](O)COCc1ccco1)NS(=O)(=O)c1ccc(C)cc1 | – | inactive: -3.11% [at 11.5 µM]
Cc1ccc(O)c(C(=O)CC(=O)c2cccc(F)c2)c1 | inactive | –
O=C(Nc1nc2ccc(S(=O)(=O)N3CCCCC3)cc2s1)C1CCCO1 (configuration not stated) | inconclusive: 12.6 µM [inhibitor, partial curve, poor fit] | –
O=C1C2ON(c3ccccc3)C(c3ccccc3F)C2C(=O)N1c1ccccc1 (configuration not stated) | inconclusive: 31.6 µM [inhibitor, single point] | –
CCOc1ccc(C(N)=O)cc1OC | inconclusive: 12.6 µM [inhibitor, partial curve] | –
Nc1nc(C(=O)O)c(N=Nc2ccccc2)c(=O)[nH]1 | – | inactive: -24.5% [at 11.5 µM]
COc1ccc(Cl)cc1NC(=O)c1cccnc1 | inconclusive: 0.0316 µM [inhibitor, full curve, poor fit] | –
CC[C@](N)(CCC(=O)O)C(=O)O | inactive | –
CCC(=O)Nc1sc2c(c1C(N)=O)CCC2 | inconclusive: 31.6 µM [inhibitor, single point] | –
CCOC(=O)c1c(C)c(C(=O)N2CCc3ccccc3C2)c(C)n1CC | inconclusive: 12.6 µM [inhibitor, partial curve, poor fit] | –
COc1ccc(-c2csc(N(CCCN3CCOCC3)C(=O)c3ccco3)n2)cc1 | inconclusive: 12.6 µM [inhibitor, partial curve] | –
COc1ccccc1N1CCN(C(=O)CSc2nc3ccccc3c(=O)n2CC2CCCO2)CC1 (configuration not stated) | inconclusive: 3.98 µM [inhibitor, partial curve] | –
COc1cccc(Cn2c(=O)c(-c3cccs3)nc3cnc(N(C)C)nc32)c1 | inactive | –

SMILES | Potency | activity, negative = inhibition
CCCCNC(=O)Nc1c(C(=O)OCC)[nH]c2ccccc12 | inactive | –
CCOC12NC(=O)CC(=O)N1C(c1ccccc1)=CS2 (configuration not stated) | inconclusive: 39.8 µM [inhibitor, single point] | –
O=C(O)CCSc1nc2ccccc2n1CCOc1ccccc1 | inconclusive: 39.8 µM [inhibitor, single point] | –
C=CCC1CCCCC12NC(=O)NC2=O (configuration not stated) | inactive | –
CN1CCN(CC(=O)N2c3ccccc3C(=O)Nc3cccnc32)CC1 | inactive | –
CCN(CC)C(=O)c1sc(N)c(C#N)c1C | inconclusive: 0.02 µM [inhibitor, full curve, poor fit] | –
COc1ccc(-c2noc(CSc3nc(-c4ccccc4)cc(=O)[nH]3)n2)cc1OC | inconclusive: 10 µM [inhibitor, partial curve] | –
CCN1CCN(c2nc(-c3cccnc3)nc3ccccc23)CC1 | inactive | –
Cn1cccc1Cc1nnc(SCC(=O)Nc2cccc(F)c2)n1CCc1ccccc1 | inconclusive: 25.1 µM [inhibitor, single point] | –
O=C(c1ccc2c(=O)n(CC3CCCO3)c(=S)[nH]c2c1)N1CCN(c2ccccc2)CC1 (configuration not stated) | inconclusive: 3.98 µM [inhibitor, full curve, poor fit] | –
CCSc1nc2cc(OC)c(OC)cc2c(=O)n1CC | inconclusive: 10 µM [inhibitor, partial curve] | –
COc1ccc(CNc2ncncc2-c2cccc(C#N)c2)c(OC)c1 | inconclusive: 12.6 µM [inhibitor, partial curve] | –
CCCC(c1nnnn1C1CCCC1)N1CCN(c2ccccc2F)CC1 (configuration not stated) | inactive | –
CC[C@@H](c1ccccc1)n1c(=O)n2n(c1=O)[C@H]1[C@H](O)[C@H]3O[C@@H]3/C(=N/OCc3ccccc3)[C@@H]1CC2 | – | inactive: -0.747% [at 11.5 µM]
NC(=O)c1cnn2c(C(F)(F)F)cc(-c3ccc(F)cc3)nc12 | inconclusive: 10 µM [inhibitor, partial curve] | –
FC(F)(F)c1ccccc1-c1nc(N2CCOCC2)c2ccccc2n1 | inactive | –
Nc1nc(CC(=O)O)cs1 | inactive | –
N#CC(C(=O)NCc1ccccc1)c1nc2ccccc2nc1N1CCCC1 (configuration not stated) | inactive | –
COc1ccccc1NC(=O)CC1C(=O)NCCN1C(=O)Nc1ccc(Cl)c(Cl)c1 (configuration not stated) | inconclusive: 31.6 µM [inhibitor, single point] | –
O=C(CS(=O)(=O)c1ccccc1)Nc1nc(-c2ccccc2)cs1 | active: 39.8 µM | –
CCCOC(=O)c1ccc(Oc2cn[nH]c2-c2ccc(OC)cc2O)cc1 | inactive | –
CCOc1ccc(NC(=O)Nc2ccc(N(C)C(C)=O)cc2)cc1 | inconclusive: 15.8 µM [inhibitor, partial curve] | –
COc1ccc(CNC(=O)c2cc3c(C)nc4ccccc4c3o2)c(OC)c1 | inconclusive: 15.8 µM [inhibitor, partial curve] | –
COC(=O)CCn1nnc(-c2ccc(C(C)C)cc2)n1 | inactive | –

SMILES | Potency | activity, negative = inhibition
N#Cc1c(/N=C/c2cccs2)sc2c1CCCCC2 | active: 15.8 µM | –
Cc1ccc(/C=c2\sc3nc(-c4cccs4)nn3c2=O)o1 | inactive | –
COc1cc2cc(CN(CCO)S(=O)(=O)c3ccccc3Cl)c(=O)[nH]c2cc1OC | inactive | –
CCn1c(COc2ccccc2)nnc1SCC(=O)CC(=O)Nc1ccccc1OC | inconclusive: 39.8 µM [inhibitor, single point] | –
Cn1c(=O)[nH]c(=O)c2[nH]c(N(Cc3ccccc3)Cc3ccccc3)nc21 | active: 25.1 µM | –
CCN(CC)CCCn1c(-c2ccccc2)nc2c(N(CCOC)CCOC)nc(C)nc21 | inactive | –
N#Cc1cccc(NC(=O)CSc2ccccc2)c1 | inconclusive: 39.8 µM [inhibitor, partial curve] | –
C[C@@](Cc1ccc(O)c(O)c1)(NN)C(=O)O | inconclusive: 0.0398 µM [inhibitor, full curve, poor fit] | –
Cn1nc(-c2ccc(OCC(=O)Nc3cccnc3)cc2)c2ccccc2c1=O | active: 31.6 µM | –
NC[C@@H]1O[C@H](C23CC4CC(CC(C4)C2)C3)Cc2c1ccc(O)c2O | inactive and inconclusive: 25.1 µM [inhibitor, single point] | –
CCO/C(C)=N/n1c2nc3ccccc3nc2c2c(=O)n(C3CCCC3)c(C)nc21 | inconclusive: 31.6 µM [inhibitor, single point] | –
N#CCSc1nc2[nH]ncc2c(=O)n1-c1ccccc1Br | inconclusive: 15.8 µM [inhibitor, partial curve, poor fit] | –
CN1CCN(CC(=O)Nc2c(C(=O)C3CC3)oc3ccccc23)CC1 | inconclusive: 7.94 µM [inhibitor, full curve, poor fit] | –
Cc1ccc(-n2nc(C)c(C3C(C#N)=C(N)OC4=C3C(=O)CC(C)(C)C4)c2Cl)cc1 (configuration not stated) | inactive | –
CCCCC(CC)CNC(=O)c1[nH]c(C)c(C(C)=O)c1C (configuration not stated) | inconclusive: 20 µM [inhibitor, partial curve] | –
CCN(CC)c1ccc(-c2nn3c(-c4ccccc4OC)nnc3s2)cc1 | inconclusive: 12.6 µM [inhibitor, single point] | –
Fc1ccc(-c2nnc(NC3=NCCCCC3)o2)cc1 | inactive | –
CC(=O)NCCNc1ccnc(-c2ccccc2C)n1 | inconclusive: 2 µM [inhibitor, partial curve] | –
Cc1ccc(CCNC(=O)C2CCCN(C(=O)c3cc4sccc4n3C)C2)cc1 (configuration not stated) | inconclusive: 39.8 µM [inhibitor, single point] | –
Cc1noc(C)c1-c1cc(NC2CC2)ncn1 | inactive | –
CC(C)CC1NC(=O)N(CC(=O)c2ccc3c(c2)OCCO3)C1=O (configuration not stated) | inconclusive: 39.8 µM [inhibitor, single point] | –
O=C(COC(=O)c1cccc(S(=O)(=O)N2CCc3ccccc32)c1)NC1CCS(=O)(=O)C1 (configuration not stated) | inconclusive: 10 µM [inhibitor, partial curve, poor fit] | –
CC(C)NC[C@@H](O)COc1ccccc1-n1cccc1 | inactive | –
O=C(Nc1cccc(O)c1)c1ccc(Br)c(S(=O)(=O)N2CCCCC2)c1 | inconclusive: 15.8 µM [inhibitor, partial curve] | –
